Results: the supplement of paper PMC10126150
Values marked as one replicate rest on one cluster of the flow cell; about a third of the high ones do not repeat.

Tested on: ATP
Assay: switch fluorescence ratio, 500 uM ATP over buffer (Cy3 cluster intensity, sum of 5 cycles each) (fold (ratio)); higher = stronger signal-on switching upon ATP binding; sequences stand for … in TCGTCGGCAGCGTCAGATGTGTATAAGAGACAGTTTTTTTTTTTTTTTTTTTTTTTTT…TC
Settings: aptamer strand: ATP DNA aptamer (quencher-CACCTGGGGGAGTATTGCGGAGGAAGG + anchor), 100 nM annealed; ATP concentration: 500 uM; one replicate
Outline: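 Clusters carrying Cy3-labelled switching strands on a modified Illumina MiSeq flow-cell were annealed to 100 nM quencher-labelled ATP aptamer and imaged in selection buffer. They were imaged again after 15 min with 500 uM ATP at 22 °C, over five buffer/ATP cycles with NaOH stripping and re-annealing in between. For each cluster, the fluorescence ratio is the summed Cy3 intensity of the target cycles divided by that of the buffer cycles, averaged per switch-domain sequence. Clusters outside 100-1000 RFU were left out.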
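Also: ATP exposure 15 min at 22 °C before imaging.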

Sequence	switch fluorescence ratio
TGAGTCGACT	1.07
CCTTGGTTAT	1.08
TACCTGGATT	0.988
TAGCGACTT	0.984
GCACCGTATT	1.15
CAAAAGCGGC	1.13
TGGCCAGCCC	0.989
CCGGTTTTGT	1.03
TATCGCGATT	1.02
TATTAACT	1.01
GATTCGCGCC	1.03
GATAAACAAA	1.02
TATCATAGTG	1.01
GACCCACAGC	1.23
ATCATATTCT	1.03
GTGAAGGGAT	1.04
CAGGTACACT	1.03
GCCCTGTCGT	1.01
TTGCATAAAG	0.99
AAACGCAAGG	1.28
CTGGATAACC	0.972
GTTGCGCTCT	1.09
CTACTCTTAT	1.05

Sequence	switch fluorescence ratio
AGTGTTATGA	1.01
AGTCGCGCTG	0.977
TAAATGTATA	1.01
GGCATGTACT	1.2
CCAGTAATAA	2
GATCTAGTGC	1
GCTTACGTTA	1.17
GTATGTTTAC	1.01
TTTTTCTCCT	1.04
TCTGTTGGAT	0.971
ACGTGCATGC	1.02
GTTTGTGAT	0.984
AATTTAATGA	1.01
TAGATGAGTA	0.988
TTTAACCTTC	2.26
GGATTCTACT	1.02
CCTAGATTCA	0.998
AAATTTTCAG	0.998
TGGGAAGCGC	0.892
GCGGGTGGAG	1.04
GCGACTCCCT	1.99
AGGCGTGAGA	0.972
TATGACACTG	0.983

Sequence	switch fluorescence ratio
AAGCCGCAAA	1.87
CAATCTCATT	1.02
ACTCTTTCAG	0.979
AGGCCGGGGC	1.02
TATTGAGTTC	1
ACGAGACTTA	1.08
GGAATGATTT	0.991
GGTTGGGCAA	1.21
CGTATAGGGC	0.977
GCGCCGATGG	0.957
GGAGAAATGG	0.945
ATGTCGCTGA	0.983
CCGGACGATG	1.09
GCTGCTTGCA	1.01
TTGAGCCGCT	1
AACCGATAC	2.99
TCCGTTGGAC	2.78
GGCAATTGTT	0.967
GCCAGGACGT	0.991
GCATGTATCC	1.09
TAAGACAGCC	1.16
CGGGCCTGCG	1.02
AGCACCTGGG	1.14

Sequence	switch fluorescence ratio
GGTAATCCTC	1.06
CGAATTGGCT	1.07
GTTGGCATAT	1.06
TTGGGCCCAG	0.99
AAATACCACC	1.25
TAGGTAAGTA	0.99
AGCAGCGTGT	0.996
TGGAAGTGCG	0.98
ACAAGACAGC	1.08
TCGGTCAAAC	1.18
TTCTTTCAAT	1.93
ATATCTGTCG	0.967
CCTTCCAACT	1.53
ACTTCATGAA	1.09
ATGTAGTAAA	0.999
TCATTGGTGG	1.02
CACCAGTTTT	1.04
TACTGTTCAC	1.05
TAGTCAGCAT	1.12
GTGCGCTAAA	0.967
GGCAGGGGCA	1.42
GGGTGGAACT	1.03
ACAATTGTGG	0.986

Sequence	switch fluorescence ratio
AATAATTGA	1.03
GATTATAACT	0.949
CCCGATTAAT	1.02
AATAAGTGCC	0.922
TGATTTTG	0.988
ATTTGTAGC	0.93
AGTTGGCAGT	0.971
GCATTCACTG	1.04
GAACCGAAAT	1.1
ATGTAGCGGG	0.974
GTCCTCAACC	1.02
AATTATTACG	1.05
ATGCTTTATG	1.01
TAGGACTAAA	1.06
CGTATCGAAT	0.994
TACGTCCACT	1.45
AATAAGATAG	1
AGACGATCTA	1.02
GCGCTGACCT	1.16
GATTGTAGCA	0.974
GGAAGCCAGC	0.964
AAGCTGCTAT	0.976
TTTGTACAGC	1.08

Sequence	switch fluorescence ratio
TTATATATAG	0.998
CTGATCGGTG	1.04
AAATACGCTA	1.3
TCGTTTAGCT	1.01
GGCGTTTA	0.991
ATCGGTTTCC	1.01
ATTGCAGGGC	0.999
TGGCCGTCTC	1.03
TACAGTGAGT	0.99
TCCCAGACTC	1.38
CATAGGTTTG	0.972
CGATGTTTCA	1.03
TGCGGAAGAT	1.02
GCTAATGAAA	0.971
ATGTTCCAGC	0.963
TTAGCGATCA	1.08
TGTAGGGGG	1.02
AGGTAAAAGC	1.02
CGAGTAGCAT	1.06
CGTTAGAAAG	0.966
TACATCCTTC	1.11
TCGAGCCAGA	0.974
CTCGTTTCCA	1.02

Sequence	switch fluorescence ratio
TTCGTGTTGC	0.992
AGGGGTGGGC	0.969
ATAGTAGAGT	0.998
CAACTCGGAA	1.06
ATCAAGGTAC	1.12
CAAGTAGGCC	1.01
ATAGTAGCTC	0.985
GCTCGAAACG	0.961
CCGGATATAA	1.17
TTTGCAACG	0.953
TAAGGTATCG	0.996
GCATTGAGGA	1.02
TCGCCGGTAT	1.01
GGTCGGTGTT	1.02
TAAGCGATGG	1.24
GCCATCGCAT	1.13
GCATTCTCAA	0.988
GTAGTATGAT	0.952
CGTTGAGGCG	0.931
